Experimental data: a collection of fitness landscapes (doi:10.1126/science.1257360)
The list shows a part of the results.

B1: PhoQ; a variant is named by its letters at X, in order, P23837 (parent)
chain: MKKLLRLFFPLSLRVRFLLATAAVVLVLSLAYGMVALIGYSVSFDKTTFRLLRGESNLFYTLAKWENNKLHVELPENIDKQSPTMTLIYDENGQLLWAQRDVPWLMKMIQPDWLKSNGFHEIEADVNDTSLLLSGDHSIQQQLQEVREDDDDAEMTHSVAVNVYPATSRMPKLTIVVVDTIPVELKSSYMVWSWFIYVLSANLLLVIPLLWVAAWWSLRPIEALAKEVRELEEHNRELLNPATTRELTSLVRNLNRLLKSERERYDKYRTTLTDLTHSLKTPLXXLQXXLRSLRSEKMSVSDAEPVMLEQISRISQQIGYYLHRASMRGGTLLSRELHPVAPLLDNLTSALNKVYQRKGVNISLDISPEISFVGEQNDFVEVMGNVLDNACKYCLEFVEISARQTDEHLYIVVEDDGPGIPLSKREVIFDRGQRVDTLRPGQGVGLAVAREITEQYEGKIVAGESMLGGARMEVIFGRQHSAPKDE

Variants of: B1
Assay: enrichment ratio after two sorts for PhoP signalling (ratio (wild type AVST 3.29)); higher = more functional
Details: with PhoP (E. coli)

Variant | enrichment ratio
LWYM | ≤ 0.25
EKVG | ≤ 0.25
GRVR | ≤ 0.25
FAPH | 2.01
SLNL | 0.915
EYQQ | ≤ 0.25
QSAE | ≤ 0.25
VSKG | ≤ 0.25
YGRY | ≤ 0.25
QTTT | ≤ 0.25
HAYF | ≤ 0.25
GNNI | ≤ 0.25
YGWH | ≤ 0.25
ACGR | ≤ 0.25
RFMA | 0.944
TQCN | 24.9
PISW | ≤ 0.25
PCSS | ≤ 0.25
SVHV | 6.57
ANTS | 21.1
SIWI | ≤ 0.25
WPGC | ≤ 0.25
QSPV | ≤ 0.25
MDIW | ≤ 0.25
PKSH | ≤ 0.25
SKPC | ≤ 0.25

Variant | enrichment ratio
RDMH | ≤ 0.25
RGWF | ≤ 0.25
KLYH | ≤ 0.25
KFYY | ≤ 0.25
HSRE | ≤ 0.25
KFVN | ≤ 0.25
IFTQ | ≤ 0.25
EHHW | ≤ 0.25
LLMI | ≤ 0.25
FDKM | ≤ 0.25
ISWS | ≤ 0.25
KYGG | ≤ 0.25
FDIM | ≤ 0.25
FKGA | ≤ 0.25
YRTD | ≤ 0.25
RCPL | ≤ 0.25
TCNG | 2.84
LMAI | ≤ 0.25
WMCY | ≤ 0.25
VEGY | ≤ 0.25
IPFI | ≤ 0.25
YCLH | ≤ 0.25
HYPC | ≤ 0.25
YWSK | ≤ 0.25
YQCV | ≤ 0.25
IYSW | ≤ 0.25

Variant | enrichment ratio
WKQP | ≤ 0.25
LPNV | ≤ 0.25
LVYS | ≤ 0.25
HLVV | ≤ 0.25
QISY | ≤ 0.25
IFST | ≤ 0.25
REDT | ≤ 0.25
EQYK | ≤ 0.25
NELI | ≤ 0.25
PYFG | ≤ 0.25
KFHT | ≤ 0.25
RYAH | ≤ 0.25
SFPE | ≤ 0.25
SGWD | ≤ 0.25
IRYW | ≤ 0.25
KIYQ | ≤ 0.25
ILRC | ≤ 0.25
PDII | ≤ 0.25
FVKK | ≤ 0.25
MDSY | ≤ 0.25
TVVE | ≤ 0.25
TMID | ≤ 0.25
MTCR | ≤ 0.25
KLIY | ≤ 0.25
HRSF | ≤ 0.25
MRPW | ≤ 0.25

Variant | enrichment ratio
IHAR | ≤ 0.25
AVWF | ≤ 0.25
NLGD | ≤ 0.25
KRAC | ≤ 0.25
TVWC | ≤ 0.25
NTFK | ≤ 0.25
LQWA | ≤ 0.25
HCKP | ≤ 0.25
TNKR | ≤ 0.25
KIPM | ≤ 0.25
VNHV | ≤ 0.25
HGFM | ≤ 0.25
IQVM | ≤ 0.25
SMSK | 2.79
LMPW | ≤ 0.25
EINP | ≤ 0.25
FDGI | ≤ 0.25
STPN | ≤ 0.25
LVRK | ≤ 0.25
RGGI | ≤ 0.25
FYGK | ≤ 0.25
WDCT | ≤ 0.25
EFNI | ≤ 0.25
IYVQ | ≤ 0.25
FNYS | ≤ 0.25
APFI | ≤ 0.25

Variant | enrichment ratio
REGE | ≤ 0.25
HSGC | ≤ 0.25
KYLT | ≤ 0.25
PCHA | ≤ 0.25
DNGH | ≤ 0.25
SCGI | 12.6
YNED | ≤ 0.25
VHVG | ≤ 0.25
VVFH | ≤ 0.25
WNIK | ≤ 0.25
FNIL | ≤ 0.25
YHAE | ≤ 0.25
FAVQ | ≤ 0.25
INFI | ≤ 0.25
RMIV | ≤ 0.25
KCPH | ≤ 0.25
IGLG | ≤ 0.25
ISEQ | ≤ 0.25
RDKL | ≤ 0.25
NFNF | ≤ 0.25
LSYN | ≤ 0.25
IFPN | ≤ 0.25
HINP | ≤ 0.25
IEIY | ≤ 0.25
QRHL | ≤ 0.25
ASIE | 0.421

Variant | enrichment ratio
NKMC | ≤ 0.25
GART | ≤ 0.25
PLMV | ≤ 0.25
IQEA | ≤ 0.25
VPIK | ≤ 0.25
NQMS | ≤ 0.25
QTKQ | ≤ 0.25
IQMT | ≤ 0.25
CSVS | ≤ 0.25
SCYD | ≤ 0.25
SQIL | 5.22
YQPL | ≤ 0.25
ACMV | 7.12
FTVE | ≤ 0.25
LVYG | ≤ 0.25
RYIK | 0.387
VRRN | ≤ 0.25
HKSR | ≤ 0.25
KPYH | ≤ 0.25
IWPH | ≤ 0.25
FEKT | ≤ 0.25
LHEH | ≤ 0.25
LAMC | ≤ 0.25
